Measured values published in PubChem BioAssay (Tox21).
Inconclusive means that the source gave no clear call. Such entries were picked first, then a sample of the others. For part of these data: Where the call is inconclusive, the potency comes from a doubtful curve fit. Calls of active or inactive are those of the source. Unless noted, calls follow the shape of the dose curve; as a rule, active = well fitted curve in the direction sought with a large enough effect in the repeat runs; inconclusive = weak or mixed curves; inactive = no such curve, though single readings can be large; an effect the other way counts as inactive or inconclusive.

Experiments:
[1] = qHTS assay for small molecules that induce genotoxicity in human embryonic kidney cells expressing luciferase-tagged ATAD5 (AID 651632); also: nearly all actives have a fitted effect of over 15% in size; also: potency is read from the fitted curve at half-maximal effect
How it was run: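 Cells were seeded at 2,000 per well, dosed with compound, and incubated 16 hr at 37C in 5% CO2. Luciferase activity was then quantified after a 30 min room-temperature incubation with Amplite.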

[2] = qHTS assay for small molecule disruptors of the mitochondrial membrane potential (AID 720635); conditions: HepG2 mitochondrial membrane potential, Mito-MPS dye ratio; ratio activity, negative = MMP loss: at 83.2 µM (top of the series) unless noted; also: potency is read from the fitted curve at half-maximal effect; as to ratio activity, negative = MMP loss: % is scaled to controls: 0 for no effect and ±100 for the full control effect
How it was run: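 HepG2 cells exposed to compound 1 hr at 37C, then Mito-MPS dye 30 min. Ratio read of aggregate (540/590 nm) versus monomer (490/535 nm) fluorescence.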

[3] = target: Glucocorticoid receptor (Homo sapiens) (UniProt P04150); assay: qHTS assay to identify small molecule agonists of the glucocorticoid receptor (GR) signaling pathway (AID 720691; active = well fitted activation curve with a large enough effect in the signal ratio in the repeat runs, not every such curve was filed as active; inconclusive = weak or mixed curves, or effect the other way; inactive = no such curve, though single readings can be large or run the other way; the % refers to the signal ratio; also: potency is read from the fitted curve at half-maximal effect); conditions: GR-bla HeLa, beta-lactamase reporter ratio, 18 h; activation: at 62.4 µM (top of the series) unless noted
How it was run: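 Steps: seed GR-bla HeLa cells, incubate 4 h at 37 C/5% CO2; pin-transfer DMSO-dissolved compounds; incubate 18 h at 37 C; add LiveBLAzer B/G FRET substrate; after 2 h at room temperature, measure fluorescence.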

[4] = target: Glucocorticoid receptor (Homo sapiens) (UniProt P04150); assay: qHTS assay to identify small molecule antagonists of the glucocorticoid receptor (GR) signaling pathway (AID 720692; active = well fitted inhibition curve with a large enough effect in the signal ratio in the repeat runs, not every such curve was filed as active; inconclusive = weak or mixed curves, or effect the other way; inactive = no such curve, though single readings can be large or run the other way; the % refers to the signal ratio; also: potency is read from the fitted curve at half-maximal effect; as to activity change, negative = inhibition: % is scaled to controls: 0 for no effect and ±100 for the full control effect); conditions: GR-bla HeLa, beta-lactamase FRET ratio, dexamethasone-stimulated, 18 h; activity change, negative = inhibition: at 58.5 µM (top of the series) unless noted
How it was run: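 Antagonism was scored as loss of dexamethasone-driven (5 nM final) reporter signal in HeLa cells bearing a glucocorticoid response element–beta-lactamase construct, after 18 h compound exposure at 37 C and 2 h FRET substrate loading.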

[5] = target: Nuclear receptor subfamily 1 group I member 2 (Homo sapiens) (UniProt O75469); assay: CYP3A4 induction through human pregnane X receptor (PXR) by small molecules, qHTS assay (AID 1346984); conditions: DPX-2 HepG2 PXR, CYP3A4-luciferin luminescence, 24 h; activation: at 46.1 µM (top of the series) unless noted; also: nearly all actives have a fitted effect of over 40% in size; also: potency is read from the fitted curve at half-maximal effect; as to activation: % is scaled to controls: 0 for no effect and ±100 for the full control effect
How it was run: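 Quantitative HTS in DPX-2 cells, i.e. HepG2 transfected with PXR response element and CYP3A4-promoter luciferase. Compounds in DMSO incubated 24hr at 37C; then P450-Glo CYP3A4 substrate, 3uM final, 3hr; One-Glo luminescence.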

[6] = qHTS assay for small molecule agonists of the p53 signaling pathway (AID 651631; calls by dose curve; also: % is scaled to controls: 0 for no effect and ±100 for the full control effect; nearly all actives have a fitted effect of over 15% in size); conditions: HCT-116 p53RE-bla reporter, beta-lactamase FRET ratio, 16 h; activation: at 73.3 µM (top of the series) unless noted
How it was run: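 HCT-116 p53RE-bla reporter line, 16 h compound treatment at 37 °C, then fluorescence after 2 h with B/G FRET substrate.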

[7] = qHTS assay for small molecule agonists of the p53 signaling pathway - cell viability (AID 651633; calls by dose curve; also: potency is read from the fitted curve at half-maximal effect; nearly all actives have a fitted effect of over 30% in size)
How it was run: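 p53RE-bla cells were treated with compound for 16 hours at 37 C. Cytotoxicity was then measured as CellTiter-Glo luminescence after 30 min at room temperature.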

[8] = qHTS assay to identify small molecule antagonists of the glucocorticoid receptor (GR) signaling pathway - cell viability counter screen (AID 720693); conditions: GR-bla HeLa viability, CellTiter-Glo luminescence, 18 h, with 5 nM dexamethasone present; viability change, negative = cytotoxic: at 58.5 µM (top of the series); also: potency is read from the fitted curve at half-maximal effect; nearly all actives have a fitted effect of over 55% in size
[9] = qHTS assay for identifying genotoxic compounds that show differential cytotoxicity against isogenic chicken DT40 cell lines with known DNA damage response pathways - wild type cell line (AID 743012); conditions: DT40 wild type chicken cells viability, CellTiter-Glo, 40 h; activity change, negative = cytotoxicity: at 68.4 µM (top of the series) unless noted; also: potency is read from the fitted curve at half-maximal effect; nearly all actives have a fitted effect of over 60% in size
How it was run: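 Cytotoxicity in repair-proficient parental chicken DT40 cells serves as the comparator for Rad54/Ku70- and Rev3-deficient lines. Cells were exposed to compounds for 40 h at 37 C/5% CO2, and ATP-based luminescence (CellTiter-Glo) measured viability.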

[10] = qHTS assay to identify small molecule antagonists of the androgen receptor (AR) signaling pathway using the MDA cell line - cell viability counter screen (AID 743041; also: potency is read from the fitted curve at half-maximal effect; nearly all actives have a fitted effect of over 45% in size); conditions: MDA-kb2 viability, CellTiter-Fluor, 16 h, cells co-treated with R1881 androgen agonist; viability change, negative = cytotoxic: at 70.3 µM (top of the series)
How it was run: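 Compound exposure lasted 16 h at 37C in MDA-kb2 AR-luc cells stimulated with R1881. Protease-based CellTiter-Fluor reagent was applied for the final 30 min and fluorescence measured.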

[11] = tested on: thyroid hormone receptor (rat, GH3 cells); assay: qHTS assay to identify small molecule agonists of the thyroid receptor (TR) signaling pathway (AID 743066; calls by dose curve; also: % is scaled to controls: 0 for no effect and ±100 for the full control effect); conditions: GH3.TRE-Luc cells, TR agonist luciferase, 24 h; activation: at 83.9 µM (top of the series) unless noted
[12] = qHTS assay to identify small molecule antagonists of the estrogen receptor alpha (ER-alpha) signaling pathway using the BG1 cell line (AID 743080; calls by dose curve;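 also: BG1 cells stimulated with 17beta-estradiol alongside compound; potency is read from the fitted curve at half-maximal effect; nearly all actives have a fitted effect of over 25% in size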); conditions: BG1Luc4E2 ERE-luciferase antagonist mode, luminescence; activity change, negative = inhibition: at 70.3 µM (top of the series) unless noted
How it was run: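 Endogenous full-length ER-alpha in BG1-Luc-4E2 cells drives a stably integrated 4×ERE luciferase gene; compounds were tested against 17beta-estradiol over 21.5 h, with luminescence and multiplexed viability fluorescence recorded.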

[13] = qHTS assay to identify small molecule antagonists of the estrogen receptor alpha (ER-alpha) signaling pathway using the BG1 cell line - cell viability counter screen (AID 743081); conditions: BG1Luc4E2 viability, CellTiter-Fluor, 22 h; activity change, negative = cytotoxicity: at 70.3 µM (top of the series) unless noted;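 also: compound given together with 17beta-estradiol as the ER stimulus; potency is read from the fitted curve at half-maximal effect; nearly all actives have a fitted effect of over 45% in size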
[14] = qHTS assay to identify aromatase inhibitors - cell viability counter screen (AID 743084); conditions: MCF-7 aro ERE viability, CellTiter-Fluor, 24 h; activity change, negative = cytotoxicity: at 70.3 µM (top of the series) unless noted;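 also: cells stimulated with testosterone during compound exposure; potency is read from the fitted curve at half-maximal effect; nearly all actives have a fitted effect of over 55% in size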
[15] = qHTS assay to identify small molecule antagonists of the androgen receptor (AR) signaling pathway - cell viability counter screen (AID 743033; also: potency is read from the fitted curve at half-maximal effect; nearly all actives have a fitted effect of over 45% in size); conditions: AR-bla HEK293 viability, CellTiter-Glo luminescence, 16 h; activity change, negative = cytotoxicity: at 58.5 µM (top of the series) unless noted
[16] = qHTS assay to identify small molecule antagonists of the thyroid receptor (TR) signaling pathway - cell viability counter screen (AID 743064); conditions: GH3.TRE-Luc viability, CellTiter-Fluor, 24 h; activity change, negative = cytotoxic: at 70.3 µM (top of the series) unless noted; also: potency is read from the fitted curve at half-maximal effect; nearly all actives have a fitted effect of over 50% in size
How it was run: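 Plate GH3.TRE-Luc cells; incubate 4 h at 37 °C; add compound, then T3 to 1 nM final; incubate 23.5 h; add CellTiter-Fluor; incubate 30 min at 37 °C, 5% CO2; read fluorescence.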

[17] = qHTS assay to identify small molecule antagonists of the thyroid receptor (TR) signaling pathway (AID 743065); also: potency is read from the fitted curve at half-maximal effect; nearly all actives have a fitted effect of over 55% in size
How it was run: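 GH3.TRE-Luc rat pituitary cells (two TREs driving luciferase) were dosed with compound, then stimulated with 1 nM T3 (final) for 23.5 h at 37 C. ONE-Glo luminescence was the read-out, with CellTiter-Fluor fluorescence as the cytotoxicity counter-screen.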
Tags tell the direction and shape of the fitted curve or compound fluorescence and quenching.

Sequence of UniProt P04150 (P04150 whole entry, looked up): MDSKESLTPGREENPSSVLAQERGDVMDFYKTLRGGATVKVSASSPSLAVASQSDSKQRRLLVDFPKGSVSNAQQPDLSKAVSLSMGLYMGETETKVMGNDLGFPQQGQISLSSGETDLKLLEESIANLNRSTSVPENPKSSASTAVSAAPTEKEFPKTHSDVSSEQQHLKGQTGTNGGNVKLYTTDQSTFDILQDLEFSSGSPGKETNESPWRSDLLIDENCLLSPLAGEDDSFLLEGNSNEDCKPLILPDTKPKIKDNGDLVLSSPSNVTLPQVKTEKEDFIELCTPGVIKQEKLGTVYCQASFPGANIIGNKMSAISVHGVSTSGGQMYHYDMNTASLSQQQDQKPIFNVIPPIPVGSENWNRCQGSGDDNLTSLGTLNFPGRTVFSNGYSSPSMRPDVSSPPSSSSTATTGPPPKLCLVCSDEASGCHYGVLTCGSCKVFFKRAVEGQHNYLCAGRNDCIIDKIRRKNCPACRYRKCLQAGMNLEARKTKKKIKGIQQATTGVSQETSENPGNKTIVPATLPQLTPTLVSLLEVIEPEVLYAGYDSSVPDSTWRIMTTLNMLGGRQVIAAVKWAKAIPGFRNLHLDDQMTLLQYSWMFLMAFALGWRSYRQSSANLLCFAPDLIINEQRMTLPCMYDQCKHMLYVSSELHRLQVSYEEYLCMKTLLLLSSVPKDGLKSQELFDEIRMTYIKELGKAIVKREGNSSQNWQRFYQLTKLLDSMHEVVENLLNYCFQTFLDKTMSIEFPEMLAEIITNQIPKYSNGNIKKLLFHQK

CN[C@@H]1[C@@H](O)[C@@H](O[C@@H]2[C@@H](O)[C@H](O[C@H]3O[C@H](CN)[C@@H](O)[C@H](O)[C@H]3O)[C@@H](N)C[C@H]2NC(=O)C(O)CN)OC[C@]1(C)O (some centres not stated)
Potency [1]: inconclusive: 13.3 µM [activator, partial curve, poor fit]
Potency [2]: inactive
Potency [3]: active: 6.01 µM
Potency [4]: inconclusive: 23.9 µM [falling, partial curve, poor fit]
Potency [5]: inconclusive: 1.26 µM [activator, full curve, poor fit]

CC(C)N=c1cc2n(-c3ccc(Cl)cc3)c3ccccc3nc-2cc1Nc1ccc(Cl)cc1
activation [6]: inconclusive: 19% [at 34.7 µM]
Potency [7]: inconclusive: 1.6 µM [cytotoxic, partial curve, poor fit]
ratio activity, negative = MMP loss [2]: inconclusive: -20.6% [at 39.1 µM]
Potency [4]: inconclusive: 10.2 µM [inhibitor]
Potency [8]: inconclusive: 12.9 µM [cytotoxic, single point]
Potency [9]: inconclusive: 12.7 µM [cytotoxic, single point]
Potency [10]: inconclusive: 10.6 µM [cytotoxic, partial curve]
activation [11]: inconclusive: -8.93% [phenotype inactive] [at 39.4 µM]
Potency [12]: inconclusive: 12.7 µM
Potency [13]: active: 11.4 µM
Potency [14]: inconclusive: 14.3 µM [cytotoxic, partial curve, poor fit]
Potency [5]: inactive

NCc1ccccc1CC(=O)N[C@@H]1C(=O)N2C(C(=O)O)=C(CSc3nnnn3CC(=O)O)CS[C@H]12
Potency [6]: inactive
Potency [2]: inconclusive: 14.3 µM [inhibitor, single point]
Potency [4]: inactive
Potency [15]: inconclusive: 0.0016 µM [cytotoxic, full curve, poor fit]
Potency [5]: inactive

CC[C@@H]1/C=C(\C)C[C@H](C)C[C@H](OC)[C@H]2O[C@@](O)(C(=O)C(=O)N3CCCC[C@H]3C(=O)O[C@H](/C(C)=C/[C@@H]3CC[C@@H](Cl)[C@H](OC)C3)[C@H](C)[C@@H](O)CC1=O)[C@H](C)C[C@@H]2OC
Potency [1]: inactive
ratio activity, negative = MMP loss [2]: inconclusive: 12.8%
Potency [16]: inconclusive: 15 µM [cytotoxic, partial curve, poor fit]
Potency [17]: inconclusive: 18.8 µM [inhibitor, partial curve]
Potency [5]: inconclusive: 28.2 µM [activator, single point]
